Reference: PubChem BioAssay (NCI)
Some structures have more than one record in an assay (separate samples or runs), and their calls can disagree.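 96-well plates, one dose, 48 hours. Percent growth reported; active if below 10.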 Certain results were filed several times, with different values. This list holds those alone. There may be further records. The screen tested this drug many times, at the concentration stated with the values; one value stands for one run. Brackets with × stand for listed records that agree.

Tested on: NCI-H460 lung
Test: NCI-60 one-dose screen, 48 h (100 = growth as untreated, 0 = no growth, -100 = all killed)

COc1cccc2c1C(=O)c1c(O)c3c(c(O)c1C2=O)C[C@@](O)(C(=O)CO)C[C@@H]3OC1CC(N)C(O)C(C)O1 (stereo not given in full)
growth (0.25 µM, runs of 2018): active: 9.56, 9.41, 8.16, 8.73, 9.15, 9.01, 8.92, 9.96, 9.71, 8.2, 9.45 (2×), 9.11, 8.59, 7.75, 6.59, 7.1, 7.7, 9.44, 8.87 (2×), 9.89, 8.75, 8.86, 8.17, 9.78, 8.46, 8.51, 7.6, 7.15, 8.01, 8.77, 9.06, 9.66, 9.53, 2.18, 5.23% and inactive: 10.6, 10.4 (3×), 13.6 (2×), 13.3, 11.5, 12.3, 10, 10.1, 10.7 (2×), 10.2, 14.5%
growth (0.25 µM, runs of 2019): active: 1.04, -0.984, -31.5, -17.3, -0.769, -0.401, 4.4, 2.39, -2.11, 0.93, -3.63, -0.997, 0.942, 6.54, 4, 2.9, 5.29, 2.16, 7.63, 3.99, 0.162, -0.38, 8.27, -1.36, 5.98, 6.12, 8.34, 5.02, 4.37, 3.91, 5.61, 6.07, 5.06, 3.25, 8.62, 8.88, 3.85, 4.81, 9.64, 3.09, 9.77, 8.44, 4.24, 5.74, 6.16, 2.6, 6.58, 6.13, 5.91%
growth (0.25 µM, runs of 2020): active: 2.98, 7.9, 8.63, 8.78 (2×), 7.37, 7.29, 8.53, 9.53, 7.49, 7.13, 8.26, 7.71, 9.45% and inactive: 10.9, 14.6 (2×), 11.5, 10.8, 11.3, 10.6%
growth (0.25 µM, runs of 2021): active: 7.46, 9.21, 8.77, 5.85, 7.24, 7.97, 7, 7.45, 8.13, 3.06, 9.28, 5.24, 5.93, 7.35, 8.45, 8.79, 5.28, 4.94, 4.4, 6.1, 3.54, 3.19, 5.52, 4.16, 2.86, 4.79, 5.43, 5.12, 7.11, 7.28, 2.85, 2.77, 6.59, 5.62, 2.78, 5.11, 7.58, 4.01, 4.63, 5.79, 2.26, 3.75, 5.8, -2.11, 9.4, 2.31, 3.27, 7.69% and inactive: 10.2%, 15.8%, 11.8%
growth (0.25 µM, runs of 2022): active: 2.45, 3.38, 2.96, 2.21, -33.3, 4.6, -13.9, 2.72, 2.22, 6 (2×), -12.3, 3.02, 8.11, 4.93, 7.69, 8.05, -1.29, 5.84, 4.29, 4.94, 6.88, 4.38% and inactive: 16.6, 15.2, 14.5, 19.4%
growth (25 µM, runs of 1991): active: -16, 4.33, -49.8, -66.9, -42.2, -34 (2×), -11.8, -50, -19.5, -12.1, -26.3, -18.6, -44, -65.1, -56.9, -74.9%
growth (25 µM, runs of 1992): active: -50.5, 2.48, -44.4, -31.1, -58.9, -46.1, -66.7, -51.5, -35.2, -6.95, -43.5 (2×), -57.3, -58.2, -45, 0.632, -38.9, 2.68, -58.7 (2×), -77.2, -50, -58.6, 0.0971, -56.1, -17.6, -55.2, -42.1, -35.7 (2×), -46.7, -61.1, -54.1, -55.1, -54.8, -40.9, -42.5, -100 (2×), -55.8, -35.6, -39.5, -26.1, -37.5, -38.7, -55.5 (2×), -78.2, -67, -62.4, 8, -51.6, -57.1, -65.3, -31.3, -73.3, -24.9, -53.6, -61, -68.3, -61.5, -54.5, -36.1, -29.1, -59.6, -98.4, -33.6, -63.9, -51.7, -92.5, -77.5, -51.1, -85.9, -81.1, -39, -66, -50.8, -26.9, -44, -79.6, -74.9, -53.5, -56.7, -83.7, -65, -70.3, -47.3, -27.1, -92, -60.1, -41.4, -59.7, -68.5, -69, -47.9, -46.4, -48.5, -53, -83.4, -78.1, -2.64, -42.2, -85, -31, -41.2, -91.6, -89.3, -8.87, -6.36, -24, -84.3%
growth (25 µM, runs of 1993): active: -13, -33.4, -34.4, -59.6, 1.98, -12.8, -85.6, -53.6, -52, -20.7, -26.7, -44.4, -25.9, -83.3, -78.1, -81.5, -8.76, -52.8, -36.7, -60.4, -63.9, -39, -18.6, -8.63, -73.8, -18, -28.8, -38.9, -53.9, -3.67, -66.1, -77.5, 0.0324, -32.1, -37.4, -50, -86.3, -54.6, -29.8, -58.3, -82.4%
growth (25 µM, runs of 1994): active: -9.26, -51.5, -43.8, -56.2, -84.5, -39.4, -47.2, -39.5, -58.9, 1.09, -57.6, -72.3, -37.6, -12.3, -46, 0.312, -76.2, -18.2, -53.6, -75.2, -34.9, -80.8, -63.6, -37.4, 0.858, -61.1, -21.3, 2.72, 8.21, -57.9, -27.3% and inactive: 84.8%
growth (25 µM, runs of 1995): active: -34.3, -44.8, -63.4, -31.7, -69.4, -13.3, -0.644, -32.3, -23, 3.14, -5.74, -34.6, -9.93, -10.1, 1.4, -2.08, 0.582, 1.87, -12.2, -51, -100 (2×), -65, -52.3, -66.8, -88.9, -48.4, -59.4, -72.1, -64.7, -64, -38.4, -45.6, -68.2%
growth (25 µM, runs of 1996): active: -36.9, -53.3, -48, -34.3, -17.8, -40, -77.4, 1.93, -20.9, -35.9, 1.32, -3.97, -48.2, -55.6, -36.7, -2.7, -23.4, 0.066, -43.9, -43.3, 1.91, -13.4, -42.9, -35.6, -51.6, -54.2, -42.1, -22.4, -52.3, -79.5, -52.5, -63.8, -61.2, -57.9, -64.2, -59, -23.1, -41.6, -67.8, -55.1, -56.4, -66.4, -72.2, -64.5, -62.6, -24.3, -64.4, -75.6% and inactive: 100%
growth (25 µM, runs of 1997): active: -79.4, -84.9, -69.4, -91.2, -31.9, 3.87, -38.2, -18.2, -5.61, -21.5, -45.3, -8.86, 1.59, -60.1, -14.9, -28.1, -52.8, -27.3, 0.871, -32.4, -34.3, -25.4, -12.3, -56.2, -14.7, 2.25, 1, -34.6, -5.34, 0.969, 1.63, -20.4, -43.3, 1.33 (2×), -3.55, 1.11, 4.46%
growth (25 µM, runs of 1998): active: -33, -42.5, 3.88, -23.9, 5.45, 9.12, -19.4, -39.2, -50.1, -19.2, -7.97, 1.81, -11.2, -33.6, 0.775, 5.44, -22.7, 9.84, -39.4, -30, -40.7, -24.1, -25.4%
growth (25 µM, runs of 1999): active: -100 (3×), -55.2, 3.96, -80.9, 2.29, -8.37, -42.5, -42.6, -2.57, -34, -8.87, 2.52, -20.2, 3.16, 3.32, 2.84, 0, -3.91, 0.57, 1.34, 1.97, 4.04, 5.42, -8.31, -50.8, -15.9, -47.9, -11, 0.106, 3.43, -2.8, 0.276, -23.2, 1.27, -78, -81.1, 0.895, -79.8%
growth (25 µM, runs of 2000): active: -100% (2×), -91.8%
